According to publication PMC11603075 (Communications Biology, 2024):

Tests used:
KDM4D = experiment: LC–MS conversion (RDM and hydroxylation), KDM4D; format: biochemical, human; conditions: 120 min; for % +16 Da / % -14 Da: 10 µM peptide; for % product formation (combined RDM and apparent hydroxylation): LC–MS
Description: (§1) MS-based screening assays with peptides and calf thymus histones were as reported; see Supplementary Table 6 for conditions. Time course assays were based on reported procedures. In brief, equal volumes of the enzyme and substrate solutions were combined to initiate the reaction; 10 µL of 2% (v/v) formic acid (HCOOH) in ddH2O or 100% methanol was added to 10 µL of the reaction mixture to quench reactions at different time points. Unless otherwise stated, time course assays were carried out in triplicate. In some cases, LC–MS was used instead of MALDI-TOF MS to avoid a MALDI matrix induced artefact with the hydroxylated product (Supplementary Fig. 16).
Supplementary Figure 6 Conversion of H2a peptides with increased concentrations of KDM4D.
Comparison of combined RDM and apparent hydroxylation activities of KDM4E and KDM4D with H2a(1– 20) and H2a(1–20 )R3 me2a. (a) Representative LC–MS spectra showing (120-minute incubation) (from top to bottom) KDM4E at 2 µM, KDM4D at 2 µM, and KDM4D at 10 µM with (from left to right) H2 a(1 –2 0 ) a n d […]
shift (hydroxylation). Charge state of labelled ions: [M + H]5+. *Low-level peaks indicating ~5% – 14 Da/+16 Da. (b) Bar graph comparing % product formation by KDM4E and KDM4D of H2a(1–20) and H2a(1– 20)R3me2a; n = 3 (independent assays). Se e Supplementary Table 6 for assay conditions.
(1 picture or pasted object on this page, not shown here)
Supplementary Figure 13 Reactivity of KDM4D with the H2a peptide panel. Representative LC–MS (12 0-minute incubation) of KDM4D at 10 µM with: (a) H2 a(1 –20)R20me2a, (b) H 2 a( 1–20)R20 me2 s, (c) H 2 a( 1– […]
was observed. Charge state of labelled ions: [M + H]5+. Y-axis: relative abundance (%). (e) Bar graph and (f) […]
21)K9me3. n = 2/3 (independent assays). Conditions: 10 µM peptide, 200 µM 2OG, 100 µM sodium L-ascorbate, 10 µM (NH4)2F e ( SO 4)2, and 50 mM HEPES (pH 7.5). […]
(§2) [ E nz ym e] [Peptide] [2OG] [Ascorbate] [(NH4)2F e(S O4)2] [TCEP] Buffer pH7.5 Enzyme Cognate substrate (mM) (mM) (mM) (mM) (mM) (mM) [HE PE S]
(§3) Supplementary Table 6 Summary of MS assay conditions for substrate screening. These conditions enabled efficient turnover of established substrates. Reactions were carried out at 37 °C unless otherwise st ated. […]

KDM4A = experiment: MALDI–TOF MS demethylation/+16 Da assay, KDM4A; format: biochemical, human; conditions: 60 min
From the text: Fig. 2 Histone H2a fragments are KDM5 and KDM4 substrates. […] See Supplementary Table 6 and Supplementary Fig. 2 for assay conditions and quantification, respectively. […] 0-minute MS spectrum in black, 60/90-minute spectrum in red.
as §1, with “16). […]” for “16).”
Supplementary Figure 2 Histone H2a peptide fragments are substrates of KDM4s and KDM5s.
2 for representative corresponding MALDI–TOF MS traces. Bar graphs comparing % product format ion (+16 Da and demethylation) of H2a(1–20)R3me2a by (a) K DM5 A–D (after 90 minutes) and (b) KDM4A–E ( a ft er 60 minutes), analysed by MALDI– TOF MS. n = (a) 2, (b) 3 (independent assays). See Supplementary Table 6 for assay condit ions. See Figure S13 A 1 for a positive control.
(also on this page, place not known: formation KDM5A–D (after MALDI–TOF conditions. Figure S13A1 KDM4A KDM4B KDM4C KDM4D KDM4E 80% product formation KDM5A KDM5B KDM5C KDM5D % product formation) […]
as §2, §3

Substance	% +16 Da (KDM4D; KDM4D 10 µM, replicate 1)	% -14 Da (KDM4D; KDM4D 10 µM, replicate 1)	% +16 Da (KDM4D; KDM4D 10 µM, replicate 2)	% -14 Da (KDM4D; KDM4D 10 µM, replicate 2)	% +16 Da (KDM4D; KDM4D 10 µM, replicate 3)	% -14 Da (KDM4D; KDM4D 10 µM, replicate 3)	+16 Da (% product formation) (KDM4A; replicate 1)	demethylation (% product formation) (KDM4A; replicate 1)	+16 Da (% product formation) (KDM4A; replicate 2)	demethylation (% product formation) (KDM4A; replicate 2)	+16 Da (% product formation) (KDM4A; replicate 3)	demethylation (% product formation) (KDM4A; replicate 3)	% product formation (combined RDM and apparent hydroxylation) (KDM4D; KDM4D 2 µM, replicate 1)	% product formation (combined RDM and apparent hydroxylation) (KDM4D; KDM4D 2 µM, replicate 2)	% product formation (combined RDM and apparent hydroxylation) (KDM4D; KDM4D 2 µM, replicate 3)	% product formation (combined RDM and apparent hydroxylation) (KDM4D; KDM4D 10 µM, replicate 1)	% product formation (combined RDM and apparent hydroxylation) (KDM4D; KDM4D 10 µM, replicate 2)	% product formation (combined RDM and apparent hydroxylation) (KDM4D; KDM4D 10 µM, replicate 3)
AR T KQ T AR K[ me 3] ST GGKAPR KQ L A [H3(1–21)K9me3, reference compound]	0%	95.001%	0%	95.7063%	0%	91.3565%	–	–	–	–	–	–	–	–	–	–	–	–
Ac - SGR [ me 2a ] GKQ GGKAR AKAKT R SSR [H2a(1–20)R3me2a, H2a(1–20)R3me2a without a biotin tag]	3.625%	8.926%	2.853%	8.658%	–	–	0%	34.0836%	0%	37.6163%	0%	37.264%	14.2166%	14.2231%	11.5331%	12.5507%	11.5106%	10.7196%
